Drawing on PMC10668032, this text covers binding signal for 172 sequences.

The list shows a part of the results. At the low end of the ranking the order means little.

This assay has as its target SIX1 homeodomain (reference allele) (UniProt Q15475). The assay is described as follows: universal protein binding microarray. The note with it: Universal all-10-mer PBM (8x60K, AMADID 030236), 300 nM GST-tagged protein, Alexa Fluor 488 anti-GST; buffer, salt, pH and temperature not stated; high values mean tight binding; most listed sequences are background and not binding sites; double strand, one strand shown.
As for AGTAGTAT, the binding signal came out at 0.349 E-score.
Next, AACAGCGA: -0.00492 E-score; GAAAGACA: -0.122 E-score; GCTCCTCC: -0.07 E-score.
As for CCAGCCTC, the figure is -0.0739 E-score; as for AGTAAGCC, -0.168 E-score; as for CATCGATC, 0.118 E-score.
As for ACAATTTA, the figure is -0.208 E-score; as for CCAGTTCA, -0.0641 E-score; as for GCCTGCCA, -0.309 E-score.
For GTTGATCA, the binding signal stood at 0.0755 E-score.
As for TCAGAGGA, the figure is 0.0858 E-score; as for GTTTGATA, 0.379 E-score; as for CATCTTCG, -0.164 E-score.
As for CTACCACC, the figure is -0.118 E-score; as for CGTGAAAG, 0.0691 E-score; as for CTAGCCAA, -0.00352 E-score.
For AGTATTCA, the binding signal was determined as 0.13 E-score.
As for AAATGAGT, the figure is -0.0474 E-score; as for CGCGACAC, 0.254 E-score; as for AGGAACGA, -0.217 E-score.
As for ACACTCCC, the figure is 0.0165 E-score; as for CTGCCGAC, 0.0431 E-score.
Regarding CTGATCCA, the binding signal was determined as 0.357 E-score.
As for GACGAAGC, the figure is -0.196 E-score; as for AATCGTAT, 0.133 E-score; as for ATGGCGCC, -0.125 E-score.
Take GAACGTTC: the binding signal was -0.241 E-score.
Next, CGGGCTGC: -0.3 E-score; CGACTGCC: -0.18 E-score.
As for GGCGTACC, the figure is 0.0215 E-score; as for ACGAATAA, -0.157 E-score.
Next, AAAGACGA: -0.107 E-score; CGGATGAG: 0.183 E-score.
Turning to ACCGATAC, the binding signal came out at 0.453 E-score.
As for CTGAGTGA, the binding signal amounted to 0.0576 E-score.
As to GCAATGTA, the binding signal came out at 0.0375 E-score.
Next, GAGCAGAC: -0.243 E-score; CTCTCAGC: -0.155 E-score.
As for ACTCTCTA, the figure is -0.129 E-score; as for ACTGTGGC, -0.0786 E-score; as for CCCTAATC, 0.0179 E-score.
As for CAATCCAC, the binding signal is 0.168 E-score.
As for AGCCTACA, the figure is -0.106 E-score.
As for GGATAGGA, the figure is 0.28 E-score.
Next, GAACTAGC: -0.134 E-score.
With ACCTATTG, the binding signal turned out to be 0.0963 E-score.
Next, ATGGCTTA: -0.0693 E-score.
Next, CCCTTTCG: -0.099 E-score; ACCAAGGC: -0.083 E-score.
Regarding CAGACATG, the binding signal was -0.0513 E-score.
In the case of CAGTTGAC, the binding signal is -0.0836 E-score.
As for ATGCCACC, the figure is 0.0364 E-score; as for CGTTTAAA, -0.188 E-score.
In the case of GACAGTGC, the binding signal is -0.12 E-score.
As for AACGCTCT, the figure is -0.283 E-score.
For the sequence CGCGTTCA, the binding signal was -0.102 E-score.
Consider CTTGCTTC, for which the binding signal was -0.182 E-score.
As for GGGCGGAC, the figure is -0.174 E-score.
As for AACGTCCA, the figure is -0.159 E-score; as for TGACATCA, -0.156 E-score; as for AAACCGTC, 0.00316 E-score.
As for GGCCTCCA, the figure is -0.213 E-score.
AAAGCCAG: the binding signal was -0.106 E-score.
Next, GTAGCACA: -0.124 E-score; ACACAGGG: -0.108 E-score; CGACTCGA: -0.129 E-score.
As for GAATATCA, the figure is 0.366 E-score; as for CGATATAC, 0.405 E-score.
As for CGCTCCCG, the figure is -0.149 E-score; as for CCAGCTCG, 0.109 E-score; as for AGCGTTTG, -0.353 E-score.
As to GCAATTCC, the binding signal was -0.148 E-score.
Next, ATTTGGCG: -0.144 E-score; ATCGCTCG: 0.199 E-score; ACCTAACG: -0.0941 E-score.
Next, AGATGCTA: 0.113 E-score; ACTCGCCG: -0.101 E-score; CCAATTCC: 0.102 E-score.
On to GCATGTGA, for which the binding signal was 0.0199 E-score.
Next, GTCCAGGA: -0.147 E-score.
Regarding ACTATACG, the binding signal came out at 0.247 E-score.
As for CTAGGAAG, the figure is -0.0927 E-score; as for TCGGAGCA, -0.177 E-score; as for ACGAACTC, -0.0273 E-score.
As for AATGCTTG, the figure is -0.227 E-score; as for AGGAGATC, 0.363 E-score; as for CTTGAGGC, -0.249 E-score.
Next, CAGAGCGG: -0.207 E-score; AATTCAAC: -0.0214 E-score; ATGGAATC: 0.0325 E-score.
Turning to ATTTTGAA, the binding signal was -0.186 E-score.
Next, GCACCTTA: -0.219 E-score; AGAAAGGG: -0.0959 E-score.
As for GTGTCAGA, the figure is 0.29 E-score.
For the sequence AGATCGCC, the binding signal amounted to 0.288 E-score.
As for CAAAAGAC, the figure is -0.107 E-score.
As for GGAGTGCC, the figure is -0.142 E-score.
As for GATGCCAA, the figure is 0.0836 E-score; as for CCCTCCCA, 0.0966 E-score; as for AGGAAAAT, -0.039 E-score.
In the case of CATTTAAA, the binding signal was -0.0348 E-score.
As for AAGCATTA, the figure is -0.148 E-score; as for GGAATGGA, -0.233 E-score.
Next, CCTCTAGA: 0.158 E-score.
For the sequence TACTAGTA, the binding signal was found to be 0.0474 E-score.
Next, CTCCGATA: 0.314 E-score; ATATGAGC: 0.208 E-score.
As for AACCTATC, the figure is 0.246 E-score; as for GGCCAAGA, -0.142 E-score.
As to GACCGGAC, the binding signal is -0.146 E-score.
As for AATTGAAT, the figure is -0.277 E-score.
As for AAGCCACC, the figure is -0.318 E-score; as for GCACGAAC, -0.0288 E-score; as for ACGAATTG, -0.208 E-score.
As for GGCTGCTA, the figure is -0.0967 E-score; as for CAACAGCC, -0.204 E-score.
Turning to ACGTAGCG, the binding signal was -0.0908 E-score.
As for GTGGTCGA, the figure is -0.162 E-score; as for TGCTGGAA, -0.114 E-score; as for CATCTCAA, 0.118 E-score.
As for ACAGCACC, the figure is -0.178 E-score; as for CACCGGGA, 0.0394 E-score; as for ACCTAACT, -0.0768 E-score.
With CCACGTAA, the binding signal was -0.0978 E-score.
As for AGATTAAC, the figure is 0.0376 E-score; as for CGTGGAGC, -0.13 E-score.
As for AAGTATAC, the figure is 0.338 E-score.
Next, ACACGCAT: -0.0263 E-score.
On to GCAAGCTA, for which the binding signal was -0.207 E-score.
As for ACCACGAC, the figure is 0.0447 E-score.
For the sequence CAAACTTA, the binding signal was -0.241 E-score.
Next, GTCAGGAA: -0.134 E-score; AGTAGGCG: -0.0959 E-score.
Next, TGCACGAA: -0.19 E-score; CGCGCGAA: -0.085 E-score.
With GCTGTAGA, the binding signal is -0.0924 E-score.
Next, CGTACTTA: -0.101 E-score.
Next, GATCCCGA: 0.377 E-score.
Consider CGCGGAGA, for which the binding signal is 0.0136 E-score.
Next, CTTCCTAC: -0.273 E-score; GCTATGTA: -0.109 E-score; GCGTTAGA: 0.197 E-score.
Next, CAGAGCTC: -0.283 E-score; GCAATATA: 0.16 E-score; ATACCGTA: 0.391 E-score.
Next, GTCATCTA: 0.208 E-score; AGACGGAA: 0.00724 E-score; AGGATCAC: 0.435 E-score.
As to CTTTAAGC, the binding signal is -0.014 E-score.
Turning to AGTCTAAC, the binding signal was -0.183 E-score.
As for ACACCTAC, the figure is 0.191 E-score.
As for CTGGCGGA, the figure is -0.0557 E-score; as for CACGGGGC, -0.11 E-score; as for TGAGGCAA, -0.0572 E-score.
As for CATGACGA, the figure is 0.141 E-score; as for TCCAAGGA, 0.0545 E-score; as for GCCCAAGC, -0.0718 E-score.
Consider CGACTACC, for which the binding signal was -0.126 E-score.
ACCACACG: the binding signal is 0.0658 E-score.
As for GGGATGCA, the figure is 1e-05 E-score; as for CTCGATCC, 0.325 E-score.
Regarding GACTTTTA, the binding signal was -0.173 E-score.
As for CTACTGCC, the figure is -0.16 E-score.
As for CGGGCAGA, the figure is 0.117 E-score; as for GTAGAGGA, 0.0143 E-score; as for ACCGAAGA, -0.104 E-score.
As for ACATCGTG, the figure is -0.0141 E-score; as for AATCTAGC, 0.0238 E-score.
On to GCAAGGGA, for which the binding signal is -0.102 E-score.
As for CTAAGCAG, the figure is -0.124 E-score.
As for CATAGAGA, the figure is -0.0866 E-score.
